{"source": "paper PMC7819943", "about": "“Rice protein-binding microarrays: a tool to detect cis-acting elements near promoter regions in rice”", "note": "The list shows a part of the results."}
{"target": "T1, OsWOX13 (Oryza sativa, UniProt Q5QMM3 1-267)", "T1 sequence": "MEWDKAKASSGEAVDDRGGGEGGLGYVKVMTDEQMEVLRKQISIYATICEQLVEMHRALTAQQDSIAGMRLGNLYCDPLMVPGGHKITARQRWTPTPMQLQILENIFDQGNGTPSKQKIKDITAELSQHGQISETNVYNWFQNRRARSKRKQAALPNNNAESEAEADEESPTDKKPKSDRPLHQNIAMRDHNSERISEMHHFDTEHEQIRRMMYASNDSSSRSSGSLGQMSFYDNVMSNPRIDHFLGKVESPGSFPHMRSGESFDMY", "experiment": "protein-binding microarray (RPBM); PBS, 2% BSA, 51.3 ng/ul salmon testes DNA, 50 uM zinc acetate, 200 nM TF, 25 C, 1 h; high values mean tight binding", "settings": "protein: recombinant; tags: N-terminal polyhistidine and DsRed monomer fusion (pET32a); label: CyDye5-dUTP incorporated in the synthesized complementary strand; 3' TTTTT single-stranded linker to array surface; dsDNA, one strand shown", "how_it_was_run": "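An Axon 4000B scanner gave the binding signal as per-feature fluorescence intensity in arbitrary units. This followed washing of a custom Agilent array that had been incubated for 1 h at 25 °C with 200 nM protein in PBS, 2% BSA, salmon testes DNA and 50 µM zinc acetate. The proteins were transcription factors fused at the N-terminus to polyhistidine and DsRed, expressed in E. coli BL21-CodonPlus and purified on Ni–NTA.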"}
{"sequence": "TTAAAACTCAATCAATCATATGTTAATACCATCTCGTTTTCGGAGTCACCTAGTGCAG", "binding signal": "29200 fluorescence intensity (a.u.)"}
{"sequence": "TGTTGATTTTACAGGTGTAGATTTACATTTGATTGTACGCCGGAGTCACCTAGTGCAG", "binding signal": "37200 fluorescence intensity (a.u.)"}
{"sequence": "CTAATTAACCGGTAATGTCGATCGAAACGATGACACATGCCGGAGTCACCTAGTGCAG", "binding signal": "19500 fluorescence intensity (a.u.)"}
{"sequence": "ATAAATTTTATAAACTTGACTGCCTCTGGTTGTATATGCACGGAGTCACCTAGTGCAG", "binding signal": "23900 fluorescence intensity (a.u.)"}
{"sequence": "TGAAATGACCGGACTCCTAATTGCAGATCATGATTTTCTGCGGAGTCACCTAGTGCAG", "binding signal": "8010 fluorescence intensity (a.u.)"}
{"sequence": "TTTCCAAATTATACATTGTTCTTCTGGAACAATCTGTGATCGGAGTCACCTAGTGCAG", "binding signal": "3210 fluorescence intensity (a.u.)"}
{"sequence": "ATGTAATCATTAATAAATTGTGTTGTATATCTCATTTAAACGGAGTCACCTAGTGCAG", "binding signal": "12600 fluorescence intensity (a.u.)"}
{"sequence": "GAGGGAGGCGATTCAATCAAGAGCAAGAGTTGAGGGAGGTCGGAGTCACCTAGTGCAG", "binding signal": "4150 fluorescence intensity (a.u.)"}
{"sequence": "AGCCAAGAACAATCAATTTCAATAACATAAGGTGAACTATCGGAGTCACCTAGTGCAG", "binding signal": "4450 fluorescence intensity (a.u.)"}
{"sequence": "CCAATTTAATTTCTATGGCTTGATTTCCTCTTTGGCACAACGGAGTCACCTAGTGCAG", "binding signal": "16400 fluorescence intensity (a.u.)"}
{"sequence": "CTTGATGGATGTTGTGGATGGAGGAGAGTGTTTTGATGCTCGGAGTCACCTAGTGCAG", "binding signal": "24800 fluorescence intensity (a.u.)"}
{"sequence": "CCTAATTCGCGGAGATTGCAAGCTATTCGCACTAACATAGCGGAGTCACCTAGTGCAG", "binding signal": "10500 fluorescence intensity (a.u.)"}
{"sequence": "AGTTACTTTTCAGTATTGATTATTTAAGTCAGTACTAAAGCGGAGTCACCTAGTGCAG", "binding signal": "3680 fluorescence intensity (a.u.)"}
{"sequence": "ATAGTTAACAAAATTTGACAGCAAACTAAATGTAACCATTCGGAGTCACCTAGTGCAG", "binding signal": "27800 fluorescence intensity (a.u.)"}
{"sequence": "TTTATGATTAGCATATGTGATGCTAAAGTAACATGTGCTACGGAGTCACCTAGTGCAG", "binding signal": "39400 fluorescence intensity (a.u.)"}
{"sequence": "ACAAACAGAATTCAATAATTATGTAATCCTTATCTTGGGTCGGAGTCACCTAGTGCAG", "binding signal": "15300 fluorescence intensity (a.u.)"}
{"sequence": "AATGTGATTATACATGCGAGTACATTAATAATCCTATCATCGGAGTCACCTAGTGCAG", "binding signal": "11300 fluorescence intensity (a.u.)"}
{"sequence": "CATGATGGAAAGTCCAGCCCATATTCAACCATTCCGGCCGCGGAGTCACCTAGTGCAG", "binding signal": "6730 fluorescence intensity (a.u.)"}
{"sequence": "TGGGCGGTTAATTTGACTTCGATGTTCAGTACCTTGTGGGCGGAGTCACCTAGTGCAG", "binding signal": "4180 fluorescence intensity (a.u.)"}
{"sequence": "CAGTAATTAGTTAAATAAAGTTCCTTTGTAACTAGGCCAACGGAGTCACCTAGTGCAG", "binding signal": "35700 fluorescence intensity (a.u.)"}
{"sequence": "AGTAGATAGATACCTCATCCCCATGTAAACAACCGATGCCCGGAGTCACCTAGTGCAG", "binding signal": "3150 fluorescence intensity (a.u.)"}
{"sequence": "GCACATAATTAAGCGCATTAACACCCTAGTAGAATTGTTTCGGAGTCACCTAGTGCAG", "binding signal": "19600 fluorescence intensity (a.u.)"}
{"sequence": "TAGAAAATTGGTAAGATTAGTCGACATGTGATCCTCCAGCCGGAGTCACCTAGTGCAG", "binding signal": "17000 fluorescence intensity (a.u.)"}
{"sequence": "AGAAAACAATTAAATTTTAGTCGTGCCTGACAAGCTAACGCGGAGTCACCTAGTGCAG", "binding signal": "3810 fluorescence intensity (a.u.)"}
{"sequence": "TGAGGTGACGAGATTGGAGGCGAAGGCTAGGAGAGGCTTGCGGAGTCACCTAGTGCAG", "binding signal": "3430 fluorescence intensity (a.u.)"}
{"sequence": "TTATCAGCCAAAATTTAAATTTTCAACCTTAAATTTGAGTCGGAGTCACCTAGTGCAG", "binding signal": "5940 fluorescence intensity (a.u.)"}
{"sequence": "ACCAGTAAGGTGGTGATTGGGCTCACCACCTTTTACGCCCCGGAGTCACCTAGTGCAG", "binding signal": "4320 fluorescence intensity (a.u.)"}
{"sequence": "GTTTTGTGTTTCTCCTCTAGTAATTGAAAAGGTTGCTTATCGGAGTCACCTAGTGCAG", "binding signal": "3960 fluorescence intensity (a.u.)"}
{"sequence": "AATAATTACTTAAACTTTTAAATAAGACGAATGGTCAAACCGGAGTCACCTAGTGCAG", "binding signal": "17900 fluorescence intensity (a.u.)"}
{"sequence": "CCACTAATTTCTTCTCTCTTTCTCTCTCTCTCCGCGCCCTCGGAGTCACCTAGTGCAG", "binding signal": "28100 fluorescence intensity (a.u.)"}
{"sequence": "CTTGCTCTAATTAATTTCCTACTACAACAGTTTAATTAATCGGAGTCACCTAGTGCAG", "binding signal": "4650 fluorescence intensity (a.u.)"}
{"sequence": "TTTGACATTTCGATTGGAAATTTGAAGCTTAAACAATAGACGGAGTCACCTAGTGCAG", "binding signal": "6320 fluorescence intensity (a.u.)"}
{"sequence": "AGTGATTCTATGCTAAATGGCACTCACCTTTCTAACGGTCCGGAGTCACCTAGTGCAG", "binding signal": "3210 fluorescence intensity (a.u.)"}
{"sequence": "CTGATTTGTATTGACATGAGGTTCTTTTGGCGTTGTGAATCGGAGTCACCTAGTGCAG", "binding signal": "33300 fluorescence intensity (a.u.)"}
{"sequence": "TTTGCTTCCTTAACGTGTGATGATTGCTGGCACAAGCCACCGGAGTCACCTAGTGCAG", "binding signal": "6120 fluorescence intensity (a.u.)"}
{"sequence": "TTTAATGAAATTTTATCTGGCCCCATTTTATATTGGAATTCGGAGTCACCTAGTGCAG", "binding signal": "12100 ± 990 fluorescence intensity (a.u.)"}
{"sequence": "CAGGATAATTTGGTCGGTTAATACCACTACATAGAGGCATCGGAGTCACCTAGTGCAG", "binding signal": "11700 fluorescence intensity (a.u.)"}
{"sequence": "AATCAATATATCAATTAAAATTTTCGGACTTTATCAAATGCGGAGTCACCTAGTGCAG", "binding signal": "20400 fluorescence intensity (a.u.)"}
{"sequence": "AAACAGAACATAATTGTGATACACTTTTCGCTGATGGGTACGGAGTCACCTAGTGCAG", "binding signal": "4900 fluorescence intensity (a.u.)"}
{"sequence": "GTCCAACAGAAATGACTGAAATCATCAAGCACCACTAAGTCGGAGTCACCTAGTGCAG", "binding signal": "4050 fluorescence intensity (a.u.)"}
{"sequence": "ATTTCAAATTTAAATTTGAATTATATCCGATTTCAAATTTCGGAGTCACCTAGTGCAG", "binding signal": "27500 fluorescence intensity (a.u.)"}
{"sequence": "ACAAACTATTCCTAATTAATAGATAACTTGCCATGCCGCACGGAGTCACCTAGTGCAG", "binding signal": "14500 fluorescence intensity (a.u.)"}
